{
  "source": "paper PMC7104723",
  "about": "(Cell Research, 2020)",
  "system": "Vero-E6, Huh-7, LLC-MK2 and RD cells",
  "conditions": "various target cells (Vero-E6, Huh-7, LLC-MK2, RD); 2 days, 37 °C; CCK-8, absorbance 450 nm; 5 μM = highest concentration tested",
  "data": [
    {"molecule": "CC[C@H](C)[C@H](NC(=O)[C@H](C)NC(=O)[C@H](CCC(=O)O)NC(=O)[C@H](CCC(=O)O)NC(=O)[C@H](CC(C)C)NC(=O)[C@H](CCCCN)NC(=O)[C@H](CCCCN)NC(=O)[C@H](CCSC)NC(=O)[C@H](CCC(=O)O)NC(=O)[C@H](Cc1ccc(O)cc1)NC(=O)[C@H](CCC(=O)O)NC(=O)[C@H](CC(C)C)NC(=O)[C@H](CC(=O)O)NC(=O)[C@H](CC(C)C)NC(=O)[C@H](Cc1ccccc1)NC(=O)[C@@H](NC(=O)[C@@H](NC(=O)[C@H](CC(N)=O)NC(=O)[C@@H](NC(=O)[C@H](CCC(N)=O)NC(=O)[C@H](CC(=O)O)NC(=O)[C@H](CC(C)C)NC(=O)[C@@H](N)CO)[C@@H](C)CC)C(C)C)[C@@H](C)O)C(=O)N[C@@H](CCCCN)C(=O)N[C@@H](CCCCN)C(=O)N[C@@H](CC(C)C)C(=O)N[C@@H](CCC(=O)O)C(=O)N[C@@H](CCC(=O)O)C(=O)N[C@@H](CO)C(=O)N[C@@H](Cc1ccc(O)cc1)C(=O)N[C@H](C(=O)N[C@@H](CC(=O)O)C(=O)N[C@@H](CC(C)C)C(=O)N[C@@H](CCCCN)C(=O)N[C@@H](CCC(=O)O)C(=O)N[C@@H](CC(C)C)C(=O)NCC(=O)N[C@@H](CO)C(=O)NCC(=O)N[C@@H](CO)C(=O)NCC(=O)NCCOCCOCCOCCOCCC(=O)N[C@@H](CSCC(=O)O[C@H]1CC[C@@]2(C)C(=CC[C@H]3[C@@H]4CC[C@H]([C@H](C)CCCC(C)C)[C@@]4(C)CC[C@@H]32)C1)C(N)=O)[C@@H](C)CC", "note": "[EK1C4]", "values": [
      {"measurement": "Half cytotoxic concentration (CC50)", "value": "> 5", "unit": "µM"}
    ]}
  ]
}
